The values below come from article PMC5892938.

This is one part of the list. At the low end of the ranking the order means little.

The experiment addresses GST-SBP-SLBP (stem-loop binding protein) (UniProt Q14493). The experiment in a line: targeted RNA Bind-n-Seq.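 Further: DESeq read counts versus GST-SBP nonspecific binding control pulldown.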 As to conditions: RBNS binding buffer: 25 mM Tris pH 7.5, 150 mM KCl, 3 mM MgCl2, 0.1% Tween, 0.5 mg/mL BSA, 1 mM DTT; 27 nM protein, 750 pM RNA pool; temperature not stated; high values mean tight binding.
For the sequence “GGUCACGUCUCAAUCAACUCUUUUCCCAGGGAAAUCCCUGGUAUACUCAACAGCUCGCAGUCAAG”, the binding signal (log2 fold change) was 0.016.
As for “GGUCACGUCUCAAUCAACUCUUUUUCCAGGGAAAUCCCUGGCAAUUUCAACAGCUCGCAGUCAAG”, the binding signal (log2 fold change) is -0.0146.
To “GGUCACGUCUCAAUCAACUCUUUCUCCAGGGAAAUCCCUGGCAUAUUCAACAGCUCGCAGUCAAG” belongs 0.278; to “GGUCACGUCUCAAUCAACUCUAUCCCAGGAGUUUCCUCCUGUAAACUCAACAGCUCGCAGUCAAG”, -0.02.
In the case of “GGUCACGUCUCAAUCAACUCCAAAGAGGGGGGGAAAACCCCUUUACCCUCGAUAUCAACAGCUCGCAGUCAAG”, the binding signal (log2 fold change) stood at 0.139.
Turning to “GGUCACGUCUCAAUCAACUCCAAAGAGGGGGGGAAAACCCCUUUACCCUCAUAAUCAACAGCUCGCAGUCAAG”, the binding signal (log2 fold change) is -0.269.
As for “GGUCACGUCUCAAUCAACUCAUCCCCAGGAGUUUACUCCUGUUUAGUCAACAGCUCGCAGUCAAG”, the binding signal (log2 fold change) came out at 0.458.
To “GGUCACGUCUCAAUCAACUCAUUCGCAGGAGUUUUCUCCUGGUUUUUCAACAGCUCGCAGUCAAG” belongs -0.198; to “GGUCACGUCUCAAUCAACUCCUAAGAGGGGGGGAAAACCCCUUUACCCUCCACAUCAACAGCUCGCAGUCAAG”, 0.0401; to “GGUCACGUCUCAAUCAACUCAAUCCCAGGAGUUUUCUCCUGUUAAUUCAACAGCUCGCAGUCAAG”, -0.176.
Turning to “GGUCACGUCUCAAUCAACUCAUGUCCAGGAGUUUACUCCUGCUAAUUCAACAGCUCGCAGUCAAG”, the binding signal (log2 fold change) is -0.0995.
Consider “GGUCACGUCUCAAUCAACUCAUCGCCCAGGGAAACCCCUGGUAAUCUCAACAGCUCGCAGUCAAG”, for which the binding signal (log2 fold change) was 0.0303.
As to “GGUCACGUCUCAAUCAACUCAUCCUCAGGAGUUUACUCCUGCUUAUUCAACAGCUCGCAGUCAAG”, the binding signal (log2 fold change) came to 0.0841.
For the sequence “GGUCACGUCUCAAUCAACUCUAUCUCAGGAGUUUCCUCCUGCUAACUCAACAGCUCGCAGUCAAG”, the binding signal (log2 fold change) was 0.187.
For the sequence “GGUCACGUCUCAAUCAACUCAUUCUCAGGAGUUUCCUCCUGCAUUCUCAACAGCUCGCAGUCAAG”, the binding signal (log2 fold change) stood at 0.0471.
“GGUCACGUCUCAAUCAACUCCUAAGAGGGGGGGAAAACCCCUUUACCCUCACAAUCAACAGCUCGCAGUCAAG”: the binding signal (log2 fold change) was -0.591.
Regarding “GGUCACGUCUCAAUCAACUCAUCUCCAGGAGUUUGCUCCUGCUAUUUCAACAGCUCGCAGUCAAG”, the binding signal (log2 fold change) was found to be 5.34e-05.
To “GGUCACGUCUCAAUCAACUCAUCCUCCAGGGAAAUCCCUGGCUAACUCAACAGCUCGCAGUCAAG” belongs 0.0691.
In the case of “GGUCACGUCUCAAUCAACUCAUCCCCCAGGGAAAACCCUGGUAAUCUCAACAGCUCGCAGUCAAG”, the binding signal (log2 fold change) was -0.23.
Turning to “GGUCACGUCUCAAUCAACUCUUCCCCAGGAGUUUCCUCCUGUAUAUUCAACAGCUCGCAGUCAAG”, the binding signal (log2 fold change) turned out to be 0.144.
Regarding “GGUCACGUCUCAAUCAACUCAUCAGAGGGGGGGAAAACCCCUUUACCCUCGUUCUCAACAGCUCGCAGUCAAG”, the binding signal (log2 fold change) was 0.21.
